# Experimental data: PubChem BioAssay AID485297 (National Center for Advancing Translational Sciences (NCATS), 2010)
# In all, about 320,000 compounds went through this assay and about 9,100 (2.8%) were called active. Inconclusive results, whose numbers are uncertain, are shown with a selection of clear calls. Calls follow the shape of the dose curve; as a rule, active = well fitted activation curve with a large enough effect; inconclusive = small, poorly fitted or top-dose-only effect; inactive = no such curve, though single readings can be large or run the other way. No potency is given beside an inconclusive call; the fits are too rough.
# Test: qHTS Assay for Rab9 Promoter Activators; also: nearly all actives have a fitted effect of over 60% in size
# Conditions: Huh7 Rab9 promoter-luciferase reporter, luminescence, 24 h; series mostly up to 9.22 µM
# Procedure, shortened: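 Huh7 cells stably carrying Rab9 promoter–luciferase reporter, plated 1500 cells/well, compound added after 2 h and incubated 24 h at 37 °C; luciferase luminescence then read after 10 min with detection reagent.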
# Potency is read from the fitted curve at half-maximal effect; tags tell the direction and shape of the fitted curve.
row,SMILES,Potency
1,CC1CCN(c2ccc3nnc(CCC(=O)Nc4ccc(F)cc4)n3n2)CC1,inactive
2,Cc1ccc(C(=O)c2coc3c2C(=O)C(=O)c2ccccc2-3)cc1,inactive
3,COc1cc(/C=C2\CCC(C3CCCC3)C2=O)cc(OC)c1OC (stereo unspecified),inactive
4,Cc1ccc(NC(=O)Nc2cc(S(C)(=O)=O)ccc2Cl)cc1,"inconclusive [activator, partial curve]"
5,CC(=O)OCC(=O)N1N=C(c2ccc3ccccc3c2)CC1c1ccccc1 (stereo unspecified),active: 3.16 µM
6,C=CCNC(=O)Cn1nnc(-c2ccc(-c3ccc(OC)cc3)cc2)n1,"inconclusive [activator, full curve]"
7,CCCC(=O)c1ccc(N2CCCC2)c(F)c1,"inconclusive [activator, single point]"
8,O=S(=O)(c1ccc2ccccc2c1)N1CCN(C(=S)Nc2ccc(F)c(Cl)c2)CC1,inactive
9,O=C(Nc1cc2c(cc1Cl)OCCO2)c1ccco1,"inconclusive [activator, partial curve]"
10,O=C(NC1=NCCS1)c1ccc(N2CCCC2=O)cc1,"inconclusive [activator, single point]"
11,O=C1CN(C(=O)OCc2ccccc2)c2ccccc2N1,"inconclusive [activator, single point]"
12,C/C(=N\NC(=O)c1ccc(Cl)cc1)c1cccnc1,"inconclusive [activator, partial curve]"
13,Nn1c(-c2ccccc2Cl)nnc1-c1ccccc1Cl,active: 3.98 µM
14,COc1ccc(NC(=O)c2cccs2)c([N+](=O)[O-])c1,active: 3.98 µM
15,Cc1cc(N=Nc2ccc(C)c(N=Nc3cc(C)c(N)cc3N)c2)c(N)cc1N,active: 2.82 µM
16,COc1cc(/C=N/NC(=O)c2ccc3c(c2)OCO3)ccc1O,inactive
17,O=C(N=C1SCC(=O)N1c1ccccc1Cl)c1ccccc1,active: 2 µM
18,c1ccn2cc(CSC3=NCCS3)nc2c1,"inconclusive [activator, single point]"
19,CCOc1cccc(C(=O)NC2=NCCS2)c1,active: 0.501 µM
20,O=[N+]([O-])c1ccc2nc(-c3cccnc3)[nH]c2c1,"inconclusive [activator, partial curve]"
21,O=C(c1csc(Nc2cccc3ccccc23)n1)N1CCCC1,inactive

row,SMILES,Potency
1,NC(=O)Cn1cnc2c(nnn2-c2cccc(Cl)c2)c1=O,inactive
2,COc1cccc(NC(=O)Nc2cccs2)c1,"inconclusive [activator, partial curve]"
3,COC(=O)c1cccc(NC(=O)CSCc2ccccc2)c1,"inconclusive [activator, partial curve]"
4,COC(=O)c1ccc(NC(=O)C(=O)N2CCCC2)cc1,"inconclusive [activator, partial curve]"
5,Cc1ccc(OCc2ccc(C(=O)O)o2)cc1C,"inconclusive [activator, partial curve]"
6,COc1cc(C(=O)NCCSc2ccccc2)cc(OC)c1OC,inactive
7,Nc1nccnc1C(=O)N/N=C/c1ccco1,"inconclusive [activator, single point]"
8,COc1ccc(C(C(=O)NC(C)(C)C)N(C(=O)CCC(=O)Nc2cc(C)on2)c2cccc(C)c2C)cc1 (stereo unspecified),inactive
9,O=C(CCOc1ccccc1)Nc1ccc(S(=O)(=O)N2CCCC2)cc1,"inconclusive [activator, single point]"
10,Cc1ccc2[nH]c(C(=O)N3CCCCC3)cc2c1,"inconclusive [activator, single point]"
11,CCOc1ncccc1C(=O)OCC(=O)Nc1ccc(-c2nc3ccc(C)cc3s2)cc1,active: 0.355 µM
12,CC(C)c1nnc(NC(=O)COc2ccccc2[N+](=O)[O-])s1,"inconclusive [activator, single point]"
13,Cc1cc(-c2ccccc2)nc(N/N=C/c2ccco2)n1,"inconclusive [activator, partial curve]"
14,COc1ccc(NC(=O)c2[nH]c(C)c(C(C)=O)c2C)cc1,"inconclusive [activator, single point]"
15,COc1cccc(NC(=O)N2CCCCCC2)c1,"inconclusive [activator, partial curve]"
16,O=C(NC1CCCCC1)C(=O)c1c[nH]c2ccccc12,active: 3.16 µM
17,COc1ccccc1NC(=O)Nc1ccc(C(N)=O)cc1,"inconclusive [activator, single point]"
18,O=C(NCCCc1ccccc1)c1ccc([N+](=O)[O-])cc1Cl,"inconclusive [activator, single point]"
19,Cc1ccc(SC[C@H](c2ccccc2)N2CCN(CCc3ccccc3)CCC2=O)cc1,inactive
20,O=C(Nc1ccc(N2CCCC2)c(Cl)c1)c1cccs1,active: 0.447 µM
21,Cc1ccccc1NC(=O)Nc1nnc(Cc2ccc([N+](=O)[O-])cc2)s1,inactive

row,SMILES,Potency
1,CC(Sc1nnc(-c2cccnc2)n1C)C(=O)N1CCOCC1 (stereo unspecified),inactive
2,O=C(NC1CCCCC1)C(=S)NCc1ccccc1,"inconclusive [activator, partial curve]"
3,Cc1cccc(NC(=O)Nc2cccc(C#N)c2)n1,"inconclusive [activator, single point]"
4,CC#CCCCC(=O)Nc1ccccc1C(=O)O,"inconclusive [activator, single point]"
5,O=C(O)c1cccc(NC(=S)N/N=C/c2ccccc2OCc2cccc(Br)c2)c1,inactive
6,O=C(NC1CCCCCC1)c1cccc(N2CCCC2=O)c1,active: 2.24 µM
7,CCCCCCc1c(C)c2ccc(OCC(=O)N[C@@H](Cc3ccccc3)C(=O)O)cc2oc1=O,inactive
8,COc1cccc(NC(=O)c2ccc3nsnc3c2)c1,"inconclusive [activator, single point]"
9,O=C(COC(=O)CCCN=C1NS(=O)(=O)c2ccccc21)NNC(=O)c1ccccc1,inactive
10,CC(=O)Nc1ccc(C(=O)OCc2ccccc2Br)cc1,"inconclusive [activator, single point]"
11,O=S(=O)(Nc1nc2ccccc2nc1-[n+]1cccc(N=C([O-])c2ccccc2Cl)c1)c1ccccc1,inactive
12,COc1cc(-c2nn3c(C4CCCCC4)nnc3s2)cc(OC)c1OC,inactive
13,O=C(/C=C/c1ccnc2ccccc12)c1cccs1,active: 0.316 µM
14,CC(C)=CC(=O)Nc1nnc(-c2cccnc2)s1,"inconclusive [activator, single point]"
15,O=C(NCCCN1CCOCC1)c1onc(CSc2nc3ccccc3[nH]2)c1C(=O)NCCCN1CCOCC1,inactive
16,CC(C)(C)NC(=O)COC(=O)c1ccccc1OCC(=O)Nc1ccc(Br)cc1,"inconclusive [activator, partial curve]"
17,O=C(NCCc1cccs1)C(c1ccccc1)c1ccccc1,inactive
18,O=C(Nc1cc2c(cc1C(=O)O)OCCCO2)c1ccc(C(F)(F)F)cc1,active: 2.82 µM
19,COc1ccc(/C=N/Nc2nc(-c3ccc(Cl)cc3)cc(C(F)(F)F)n2)cc1OC,inactive
20,CC(=O)Cn1ncc(N2CCCCC2)c(Cl)c1=O,"inconclusive [activator, partial curve]"
21,CC(OC(=O)Cc1ccccc1[N+](=O)[O-])C(=O)Nc1ccc(Cl)cn1 (stereo unspecified),inactive

row,SMILES,Potency
1,N=C1CCCN1CC(=O)c1ccc(Cl)cc1,"inconclusive [activator, partial curve]"
2,O=C(CCl)Oc1ccc2occ(C(=O)c3cccs3)c2c1,"inconclusive [activator, single point]"
3,CSc1ccc(/C=C/C(=O)Nc2ccccc2)cc1,active: 0.316 µM
4,O=C(CCNC(=O)c1ccccc1Cl)Nc1ccc(Cl)c(C(F)(F)F)c1,inactive
5,CCC(=O)Nc1ccc2c(c1)nc1n2CCN(CCOC)C1,inactive
6,CCC(=O)n1nc(-c2ccc(Cl)cc2)nc1NCc1ccccc1,"inconclusive [activator, single point]"
7,COc1ccc2c(c1)CCc1c(C(=O)NCc3ccco3)noc1-2,active: 1.58 µM
8,Cc1cccc(Cc2nnc(CCC(=O)N(C)CCc3ccccc3)o2)c1,active: 3.98 µM
9,O=C(NCc1ccco1)Nc1ccc(OC(F)(F)F)cc1,"inconclusive [activator, single point]"
10,c1ccc(-c2nc(-c3ccccn3)no2)cc1,"inconclusive [activator, full curve, poor fit]"
11,Cc1ccc(S(=O)(=O)Nc2ccc3c(c2)nc(CCN2CCOCC2)n3C)cc1,"inconclusive [activator, single point]"
12,Cc1ccc(CNC(=O)c2ccc(Cn3cc(-c4ccc(C)cc4)nc3-c3ccncc3)cc2)cc1,active: 2.82 µM
13,Cn1c(O)c(N=NC(=O)c2ccco2)c2ccccc21,active: 2.24 µM
14,Brc1ccccc1-c1nnc(SCc2nc3ccccc3s2)o1,"inconclusive [activator, partial curve]"
15,CCOC(=O)C1(Cc2ccccc2C)CCCN(C(=O)c2ccc(COC)o2)C1 (stereo unspecified),"inconclusive [activator, partial curve]"
16,O=C(NC1CCCCC1)c1ccc(Br)o1,inactive
17,Cc1c(Cl)cccc1NC(=O)CCN1C(=O)C2CC=CCC2C1=O (stereo unspecified),inactive
18,CC(=O)N(C)c1ccc(NC(=O)c2ccco2)cc1,"inconclusive [activator, single point]"
